# According to PubChem BioAssay AID1347043 (National Center for Advancing Translational Sciences (NCATS), 2019):
# The campaign covered roughly 76,000 compounds. About 1,900 (2.5%) were called active. Inconclusive results, whose numbers are uncertain, are shown with a selection of clear calls. The call rests on the fitted dose curve; in most records, active means well fitted inhibition curve with a large enough effect; inconclusive means small, poorly fitted or top-dose-only effect; inactive means flat fitted curve, though single readings scatter. A potency beside an inconclusive call is a rough fit, not a confirmed value.
# Molecular target: Luciferin 4-monooxygenase (Photinus pyralis) (UniProt P08659)
# Assay: Firefly luciferase inhibition profiling of diverse chemical library using quantitative high-throughput screening; further: nearly all actives have a fitted effect of over 65% in size
# Settings: purified P. pyralis luciferase, luminescence, biochemical; activity change, negative = inhibition: at 115 µM (top of the series) unless noted
# Procedure, shortened: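 Purified 10nM P. pyralis luciferase with 10uM D-luciferin and 10uM ATP in 50mM Tris acetate pH 7.5, 10mM Mg acetate, 0.01% Tween-20, 0.05% BSA. qHTS titration; luminescence read by CCD imager.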
# On the % scale 0 is the no-effect control and ±100 the full control effect; potency means the concentration at half of the fitted maximal effect; tags describe the fitted curve by direction and shape.
# Chain of UniProt P08659 (P08659 whole entry, looked up): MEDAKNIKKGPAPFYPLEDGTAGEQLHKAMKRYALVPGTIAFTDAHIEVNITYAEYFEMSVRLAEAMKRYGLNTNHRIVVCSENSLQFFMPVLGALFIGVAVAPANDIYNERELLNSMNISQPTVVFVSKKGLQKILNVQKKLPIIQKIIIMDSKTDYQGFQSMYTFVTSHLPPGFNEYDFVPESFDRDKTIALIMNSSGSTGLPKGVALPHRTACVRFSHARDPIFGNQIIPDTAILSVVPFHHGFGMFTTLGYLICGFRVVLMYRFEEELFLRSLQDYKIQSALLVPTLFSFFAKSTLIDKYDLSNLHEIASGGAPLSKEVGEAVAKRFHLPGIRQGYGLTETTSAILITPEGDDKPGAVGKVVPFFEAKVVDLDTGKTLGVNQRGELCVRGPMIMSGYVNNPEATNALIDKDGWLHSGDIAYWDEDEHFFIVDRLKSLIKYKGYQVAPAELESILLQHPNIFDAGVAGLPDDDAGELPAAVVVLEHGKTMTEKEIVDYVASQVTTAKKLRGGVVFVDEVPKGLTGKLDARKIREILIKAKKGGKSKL
SMILES,Potency,"activity change, negative = inhibition"
COCCN1CCCCCC(O)c2cc(C(=O)NCCCc3ccccc3)ccc21 (stereo unspecified),"inconclusive: 56.2 µM [inhibitor, partial curve]",–
O=C(O)c1ccnc(-c2ccnc(NCCCN3CCCC3=O)n2)c1,"inconclusive: 44.7 µM [inhibitor, partial curve, poor fit]",–
CC(C(=O)O)N1CC2(CCC1=O)CCN(C(=O)CN1CCCC1)CC2 (stereo unspecified),"inconclusive: 50.1 µM [inhibitor, partial curve, poor fit]",–
Cc1ccc(Cn2cc(-c3ccncc3)cc2C(=O)N2CCCCCC2)cc1,"inconclusive: 50.1 µM [inhibitor, partial curve]",–
Cc1ccc(CNC(=O)N2CCCN(C(=O)C3CC3)C(c3ccccc3)CC(=O)NCC2)cc1 (stereo unspecified),–,inactive: -15.7%
Clc1cccc(-c2noc(-c3ncn4c3COC(c3ccccc3Cl)C4)n2)c1 (stereo unspecified),"inconclusive: 31.6 µM [inhibitor, partial curve]",–
c1ccc(-c2nc3c(c(NCC4OCCc5ccccc54)n2)CCNC3)nc1 (stereo unspecified),"inconclusive: 39.8 µM [inhibitor, partial curve]",–
CSc1ccc(CNC(=O)c2ccc3c(c2)N(C)C2CCCCCN2C3=O)cc1 (stereo unspecified),"inconclusive: 39.8 µM [inhibitor, partial curve]",–
CC(=O)N1CCCC1C(=O)Nc1ccc(-c2nc3ccccc3o2)cc1 (stereo unspecified),active: 15.8 µM,–
COc1cccc(-c2cc3c(=O)n(CCNC(=O)Cc4ccc(F)cc4)ccn3n2)c1,active: 7.94 µM,–
O=C(NCC12CCC=C1N(Cc1ccccc1)C(=O)CC2)c1cccnc1 (stereo unspecified),–,inactive: 2.29%
O=C1NCCC[C@@H]1NC(=O)[C@H]1CN(C(=O)c2cccc(F)c2)CCN1S(=O)(=O)c1ccc(F)cc1,–,inactive: -0.46%
O=C(NCCn1cccc1-c1nc(-c2ccc3c(c2)OCO3)no1)c1ccccc1F,"inconclusive: 20 µM [inhibitor, full curve]",–
Cc1ccc(C(=O)N2CCCN(c3cc(-c4ccc(Cl)cc4)[nH]n3)CC2)s1,"inconclusive: 50.1 µM [inhibitor, partial curve]",–
CCN1c2cc(C(=O)Nc3ccc4c(c3)OCCO4)ccc2C(=O)N2CCCCC21 (stereo unspecified),active: 11.2 µM,–
Cc1ccc(-c2cn3c(n2)CO[C@@H](CNCc2ccc(Cl)cc2)C3)cc1,"inconclusive: 50.1 µM [inhibitor, partial curve]",–
N#Cc1ccc(CN2CCC3(CC2)CC(c2cccc(C(F)(F)F)c2)=NO3)cc1,–,inactive: 12.4%
COc1cccc(CN2CCc3c(cc(C(=O)Nc4ccc(C)cc4C)n3C)C2)c1,active: 15.8 µM,–
Cc1cc(C)n(CCC(=O)NC2CCCN(c3cc(-c4ccc(Cl)cc4)[nH]n3)C2)n1 (stereo unspecified),–,inactive: -21.5%
Cc1nsc(NC(=O)N2CCC(C(C)O)CC2)n1 (stereo unspecified),"inconclusive: 50.1 µM [inhibitor, partial curve]",–
O=C(Nc1ccccc1)N1CCC2(CCCCO2)CC1,"inconclusive: 44.7 µM [inhibitor, partial curve]",–
CCCc1cc(N2CCC(NCc3cc(F)c(F)c(F)c3)CC2)nc(C)n1,–,inactive: 4.43%
COCCc1noc(-c2nc(-c3ccc(Cl)cc3)no2)n1,"inconclusive: 17.8 µM [inhibitor, full curve]",–
CC1(CNC(=O)c2nccc3ccccc23)CCOCC1,"inconclusive: 50.1 µM [inhibitor, partial curve]",–

SMILES,Potency,"activity change, negative = inhibition"
Cn1cc(-c2cnc(Nc3ccc(F)cc3)c3c2CCO3)cn1,"inconclusive: 11.2 µM [inhibitor, full curve]",–
COc1ccc(N(C)C(=O)c2ccc3c(c2)N(S(C)(=O)=O)CC3)cc1,"inconclusive: 89.1 µM [inhibitor, single point]",–
CC1=C[C@@H](CO)[C@H](C(C)C)C[C@H]1CC(=O)N1CCN(c2ccccn2)CC1,"inconclusive: 89.1 µM [inhibitor, partial curve]",–
CN1C[C@@H](NC(=O)C2CCCCC2)C[C@H]1c1nc(-c2ccc(Cl)cc2)no1,"inconclusive: 44.7 µM [inhibitor, partial curve]",–
CCCC1CCCN1C(=O)c1coc(COc2ccc3ccc(OC)cc3c2)n1 (stereo unspecified),–,inactive: -5.94%
O=C(Cn1ccn2nc3c(c2c1=O)CCCCC3)Nc1ccc(F)c(F)c1,"inconclusive: 44.7 µM [inhibitor, partial curve]",–
COc1ccc(CN2CCN3C(=O)N(c4ccccc4)C[C@H]3C2)cn1,"inconclusive: 79.4 µM [inhibitor, partial curve]",–
O=C(N1CCC(c2n[nH]c(=O)n2Cc2ccc(F)cc2)CC1)C1(c2ccccc2)CC1,–,inactive: 8.33%
Cn1nccc1C(=O)NC1CCCN(c2cc(-c3ccc(Cl)cc3)[nH]n2)C1 (stereo unspecified),"inconclusive: 39.8 µM [inhibitor, partial curve]",–
O=C(Nc1cnc(-c2ccc(Cl)cc2)nc1)c1cccc(F)c1,active: 7.94 µM,–
Cn1ccc2cc(-c3csc(CN4CC(C)(NC(=O)C5CC5)C4)n3)ccc21,"inconclusive: 12.6 µM [inhibitor, full curve]",–
COc1ccc(CC(=O)N[C@H]2C[C@@H](c3nc(-c4ccc5ccccc5c4)no3)N(C)C2)cc1,active: 39.8 µM,–
CN1C[C@@H](NC(=O)Nc2ccccc2)C[C@H]1c1nc(-c2ccccc2)no1,–,inactive: -22.1% [at 172 µM]
Cc1ccc(-c2cn3c(n2)CO[C@@H](CNCc2ccc(-c4ccccn4)cc2)C3)cc1,active: 35.5 µM,–
O=C(NCCN1CCOCC1)C1CC(=O)N(c2n[nH]c3cc(Br)ccc23)C1 (stereo unspecified),–,inactive: -3.48%
Cc1cccc(CN2CCCC(O)(CNCc3ncccc3C)C2=O)c1 (stereo unspecified),–,inactive: -6.05%
CCC(=O)N1CCc2c(C(=O)Nc3ccc(C)cc3)cccc21,–,inactive: -4.21%
COc1ccc(NC(=O)Nc2ccc(C)n(CC(=O)N3CCCN(C)CC3)c2=O)cc1,"inconclusive: 31.6 µM [inhibitor, partial curve]",–
Cc1ccccc1CN1Cc2nc(-c3ccc4c(c3)OCO4)ccc2OCC1=O,–,inactive: 8.78% [at 172 µM]
CN1C[C@@H](NC(=O)c2ccc(C(C)(C)C)cc2)C[C@H]1c1nc(-c2ccc3ccccc3c2)no1,"inconclusive: 39.8 µM [inhibitor, full curve, poor fit]",–
c1ccc(Nc2ncc(-c3ccccc3)c3c2OCC3)cc1,"inconclusive: 17.8 µM [inhibitor, full curve]",–
CC1(C(=O)NCc2cnccn2)CCCc2cnc(NCc3ccccc3)nc21 (stereo unspecified),–,inactive: 1.75% [at 172 µM]
Cc1noc(C)c1CCNC(=O)C1CCN(C(=O)c2ncn3c2COC(c2ccc(F)cc2)C3)CC1 (stereo unspecified),"inconclusive: 44.7 µM [inhibitor, partial curve]",–
COc1ccc(C2Cn3nnc(C(=O)N4CCC(C(=O)NCC(C)C)CC4)c3CO2)cc1 (stereo unspecified),"inconclusive: 44.7 µM [inhibitor, partial curve]",–

SMILES,Potency,"activity change, negative = inhibition"
O=C(NCC1CCCCC1)c1ccc2c(c1)N(S(=O)(=O)c1ccccc1)CC2,–,inactive: 1.83%
O=[N+]([O-])c1ccccc1CN1C[C@H](O)C[C@H]1c1nc(-c2ccncc2)no1,"inconclusive: 70.8 µM [inhibitor, partial curve]",–
COCC(=O)N1CCC2(CC1)CC(N1CCN(c3ccccn3)CC1)CCO2 (stereo unspecified),–,inactive: -2.46%
O=C(Nc1ccccc1)N1Cc2[nH]cnc2C[C@H]1c1nc(-c2ccc(Cl)cc2)no1,active: 44.7 µM,–
Cc1nc(C)c(C(=O)N2CC[C@H](N3CCN(C)CC3)[C@H](CCC(=O)O)C2)o1,"inconclusive: 79.4 µM [inhibitor, single point]",–
COCCn1ccc2c(C3=CCOCC3)nc(-c3cccc(N[S+](C)(=O)[O-])c3)cc21,–,inactive: 4.66% [at 172 µM]
CS(=O)(=O)N1CCc2ccc(C(=O)Nc3ccc(F)cc3)cc21,active: 8.91 µM,–
Cc1cccc(C(=O)N2CCCC(Cc3ncc(C)n3Cc3ccccc3)C2)c1 (stereo unspecified),–,inactive: -1.02%
C[S+](=O)([O-])CCn1ncc2cc(OCc3cccc(-c4ccccc4O)c3)ccc21,active: 3.98 µM,–
Cc1ccc(OCCC2CCN(C(=O)CCc3ccccc3)C2)cc1 (stereo unspecified),–,inactive: 5.45%
O[C@@H]1C[C@@H](c2nc(-c3ccc4c(c3)OCO4)no2)N(C2CCOCC2)C1,–,inactive: -24.2% [at 172 µM]
CCNc1cc(N2CCC(CCC(=O)N3CCc4ccccc4C3)CC2)ncn1,"inconclusive: 44.7 µM [inhibitor, partial curve, poor fit]",–
Cc1ccc(CN2C(=O)NC3(CCCN(C(=O)c4cc5ccccc5[nH]4)C3)C2=O)cc1 (stereo unspecified),"inconclusive: 44.7 µM [inhibitor, partial curve]",–
O=C1NC2(CCN(C(=O)c3ccc4c(c3)OCO4)CC2)COc2ccccc21,–,inactive: -10%
O=C(Cc1ccc(Cl)cc1)N1CCC2(CC1)CC(O)CCO2 (stereo unspecified),"inconclusive: 39.8 µM [inhibitor, partial curve]",–
CNC(=O)c1ccc(CNc2cc(C3CC(O)C3)nc(N)n2)o1 (stereo unspecified),–,inactive: -8.15%
COc1ccc(NC(=O)c2ccc3c(c2)NC(C)(COCC2CC2)CO3)cn1 (stereo unspecified),"inconclusive: 79.4 µM [inhibitor, partial curve]",–
CN(C)c1cccc(-c2cnc(Nc3cccnc3)c3c2CCO3)c1,active: 39.8 µM,–
COc1cccc(CN2CCc3nc(C(=O)Nc4nc(C)cs4)oc3CC2)c1,active: 7.08 µM,–
CC(C)c1ccc(CC(=O)N2CCCc3ncc(C(=O)NCCc4ccccc4)cc32)cc1,"inconclusive: 100 µM [inhibitor, single point]",–
O=C(C[C@@H]1CCNC[C@@H]1Cc1cc(CN2CCCCC2)on1)NCc1cccs1,–,inactive: 14% [at 172 µM]
COc1ccc(Cl)cc1C(=O)N1CCC(COc2ccc3c(cnn3CCC(=O)O)c2)CC1,"inconclusive: 44.7 µM [inhibitor, partial curve]",–
COc1ccc(-c2cc(N3CCCC(NC(=O)c4cccc(Br)c4)C3)n[nH]2)cc1 (stereo unspecified),"inconclusive: 7.94 µM [inhibitor, full curve]",–
